Laboratory results from PubChem BioAssay (NCATS).
Inconclusive results, whose numbers are uncertain, are shown with a selection of clear calls. For some assays here: Where the call is inconclusive, the potency comes from a doubtful curve fit. Calls of active or inactive are those of the source. Calls follow the shape of the dose curve; as a rule, active = well fitted curve in the direction sought with a large enough effect; inconclusive = small, poorly fitted or top-dose-only effect, or another doubt; inactive = no such curve, though single readings can be large; an effect the other way counts as inactive or inconclusive.

Tests used:
[1] = P-glycoprotein substrates identified in KB-8-5-11 adenocarcinoma cell line, qHTS therapeutic library screen (AID 1346987); conditions: activity change, negative = cytotoxicity: at 44.5 µM (top of the series); also: potency is read from the fitted curve at half-maximal effect; nearly all actives have a fitted effect of over 65% in size
Procedure, shortened: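 KB-8-5-11, a colchicine-selected P-gp-overexpressing KB-3-1 subline, was grown without colchicine for the assay. Cells were seeded at 500 cells/well, dosed in concentration-response and incubated 72 h at 37 degree C, 5% CO2. Viability was read by CellTiter-Glo luminescence.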

[2] = NS1 protein of Zika virus - qHTS assay to identify small molecule inhibitors in human HEK 293 cells (AID 1347053); also: potency is read from the fitted curve at half-maximal effect; nearly all actives have a fitted effect of over 55% in size
Procedure, shortened: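 Following 20 h seeding, HEK 293 cells took compound, then 1 h later ZIKV MR766 (MOI = 0.5). Incubation ran 24 h at 37 C before TR-FRET detection of NS1; a drop in signal indicates inhibition.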

[3] = qHTS of pediatric cancer cell lines to identify multiple opportunities for drug repurposing: Primary screen for TC32 cells (AID 1347089); also: potency is read from the fitted curve at half-maximal effect; nearly all actives have a fitted effect of over 60% in size
Procedure, shortened: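 A viability screen of TC32 cells was run over 48 h, with primary MIPE doses spanning 0.78 nM–46 µM and NPC doses 0.59 nM–46 µM. ATP luminescence (CellTiter-Glo) served as the read-out.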

[4] = qHTS of pediatric cancer cell lines to identify multiple opportunities for drug repurposing: Primary screen for SJ-GBM2 cells (AID 1347091); also: potency is read from the fitted curve at half-maximal effect
Procedure, shortened: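 Eight- or eleven-point concentration series, 48 h treatment at 37 degrees C in growth media; readout CellTiter-Glo luminescence. Potency and efficacy were taken from the concentration-response curves.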

[5] = qHTS of pediatric cancer cell lines to identify multiple opportunities for drug repurposing: Primary screen for BT-37 cells (AID 1347094); also: potency is read from the fitted curve at half-maximal effect
Procedure, shortened: (§1)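 Following a 5-hour attachment period, cells at 500-1,000/well received compounds and were cultured for 48 hours. CellTiter-Glo was added and luminescence read to estimate viable, metabolically active cells.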

[6] = qHTS of pediatric cancer cell lines to identify multiple opportunities for drug repurposing: Primary screen for U-2 OS cells (AID 1347096); also: potency is read from the fitted curve at half-maximal effect; nearly all actives have a fitted effect of over 50% in size
Procedure, shortened: (§2)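 Cells (500-1,000/well) in growth media were settled 5 h at 37 degrees C, then given compounds for 48 h. Viability was read as CellTiter-Glo luminescence. Primary runs used MIPE at 11 points (0.78 nM-46 µM) and NPC at 8 points (0.59 nM-46 µM); follow-ups used 11 points.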

[7] = qHTS of pediatric cancer cell lines to identify multiple opportunities for drug repurposing: Primary screen for Saos-2 cells (AID 1347097); conditions: Saos-2 viability, CellTiter-Glo ATP luminescence, 48 h; activity change, negative = cytotoxic: at 46 µM (top of the series); also: potency is read from the fitted curve at half-maximal effect; nearly all actives have a fitted effect of over 40% in size
Procedure, shortened: as §1

[8] = qHTS of pediatric cancer cell lines to identify multiple opportunities for drug repurposing: Primary screen for SK-N-SH cells (AID 1347098); also: potency is read from the fitted curve at half-maximal effect; nearly all actives have a fitted effect of over 65% in size
Procedure, shortened: (§3)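 Cells (500-1,000/well) rested 5 h, then received compounds for 48 h; metabolically active cells were measured by CellTiter-Glo luminescence. Final concentrations spanned up to 46 µM (MIPE, 11-point) or 0.59 nM-46 µM (NPC, 8-point) in primary screens, 11-point in follow-ups.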

[9] = qHTS of pediatric cancer cell lines to identify multiple opportunities for drug repurposing: Primary screen for BT-12 cells (AID 1347101); also: potency is read from the fitted curve at half-maximal effect; nearly all actives have a fitted effect of over 25% in size
Procedure, shortened: as §3

[10] = qHTS of pediatric cancer cell lines to identify multiple opportunities for drug repurposing: Primary screen for Rh18 cells (AID 1347102); also: potency is read from the fitted curve at half-maximal effect; nearly all actives have a fitted effect of over 65% in size
Procedure, shortened: as §2

[11] = qHTS of pediatric cancer cell lines to identify multiple opportunities for drug repurposing: Primary screen for OHS-50 cells (AID 1347103); conditions: OHS-50 osteosarcoma viability, CellTiter-Glo luminescence, 48 h; activity change, negative = cytotoxic: at 57.3 µM (top of the series); also: potency is read from the fitted curve at half-maximal effect; nearly all actives have a fitted effect of over 40% in size
Procedure, shortened: as §3

[12] = qHTS of pediatric cancer cell lines to identify multiple opportunities for drug repurposing: Primary screen for RD cells (AID 1347104); also: potency is read from the fitted curve at half-maximal effect; nearly all actives have a fitted effect of over 55% in size
Procedure, shortened: as §1

[13] = qHTS of pediatric cancer cell lines to identify multiple opportunities for drug repurposing: Primary screen for MG 63 (6-TG R) cells (AID 1347105); conditions: MG 63 (6-TG R) viability, CellTiter-Glo, 48 h; activity change, negative = cytotoxic: at 46 µM (top of the series); also: potency is read from the fitted curve at half-maximal effect; nearly all actives have a fitted effect of over 50% in size
Procedure, shortened: as §1

[14] = qHTS of pediatric cancer cell lines to identify multiple opportunities for drug repurposing: Primary screen for control Hh wild type fibroblast cells (AID 1347106);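 also: a drop in luminescence marks cytotoxicity and a rise apparent proliferation; nearly all actives have a fitted effect of over 55% in size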
Procedure, shortened: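 Viability after 48 h compound treatment at 37C, 500-1,000 cells/well, read as ATP luminescence with CellTiter-Glo. Primary screens used 11-point (MIPE, 0.78 nM-46 µM) or 8-point (NPC, 0.59 nM-46 µM) final concentrations; follow-up screens used 11-point dilutions.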

[15] = qHTS of pediatric cancer cell lines to identify multiple opportunities for drug repurposing: Primary screen for Rh41 cells (AID 1347108); also: potency is read from the fitted curve at half-maximal effect; nearly all actives have a fitted effect of over 70% in size
Procedure, shortened: as §1

[16] = qHTS of pediatric cancer cell lines to identify multiple opportunities for drug repurposing: Confirmatory screen for SK-N-MC cells (AID 1347111);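 also: potency is read from the fitted curve at half-maximal effect; cells exposed to compound for 48 h before the readout; nearly all actives have a fitted effect of over 70% in size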
Procedure, shortened: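 Metabolically active cells were quantified by ATP-dependent luminescence (CellTiter-Glo, 15 min at room temperature) following 48 h treatment. Cells had been plated at 500-1,000 per well and settled for 5 h beforehand.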

[17] = qHTS of pediatric cancer cell lines to identify multiple opportunities for drug repurposing: Confirmatory screen for BT-12 cells (AID 1347112); also: potency is read from the fitted curve at half-maximal effect; nearly all actives have a fitted effect of over 55% in size
Procedure, shortened: as §2

[18] = qHTS of pediatric cancer cell lines to identify multiple opportunities for drug repurposing: Confirmatory screen for LAN-5 cells (AID 1347113); also: potency is read from the fitted curve at half-maximal effect; nearly all actives have a fitted effect of over 65% in size
Procedure, shortened: as §2

[19] = qHTS of pediatric cancer cell lines to identify multiple opportunities for drug repurposing: Confirmatory screen for DAOY cells (AID 1347114)
Procedure, shortened: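 Viability measured as metabolically active cells via CellTiter-Glo luminescence following 48 hours of compound exposure, 11-point dilutions in confirmatory testing. 500-1,000 cells/well plated 5 hours before dosing; controls were DMSO and 2.3 µM bortezomib.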

[20] = qHTS of pediatric cancer cell lines to identify multiple opportunities for drug repurposing: Confirmatory screen for NB-EBc1 cells (AID 1347115);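 also: potency is read from the fitted curve at half-maximal effect; cells exposed to compound for 48 h before the viability read; nearly all actives have a fitted effect of over 45% in size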
Procedure, shortened: as §2

[21] = qHTS of pediatric cancer cell lines to identify multiple opportunities for drug repurposing: Confirmatory screen for BT-37 cells (AID 1347117)
Procedure, shortened: as §2

[22] = qHTS of pediatric cancer cell lines to identify multiple opportunities for drug repurposing: Confirmatory screen for control Hh wild type fibroblast cells (AID 1347121); also: nearly all actives have a fitted effect of over 70% in size
Procedure, shortened: as §2

[23] = qHTS of pediatric cancer cell lines to identify multiple opportunities for drug repurposing: Confirmatory screen for U-2 OS cells (AID 1347122)
Procedure, shortened: as §2

[24] = qHTS of pediatric cancer cell lines to identify multiple opportunities for drug repurposing: Confirmatory screen for RD cells (AID 1347124)
Procedure, shortened: as §2

[25] = qHTS of pediatric cancer cell lines to identify multiple opportunities for drug repurposing: Confirmatory screen for Rh18 cells (AID 1347125)
Procedure, shortened: as §2

[26] = qHTS of pediatric cancer cell lines to identify multiple opportunities for drug repurposing: Confirmatory screen for Rh30 cells (AID 1347126)
Procedure, shortened: as §2

[27] = qHTS of pediatric cancer cell lines to identify multiple opportunities for drug repurposing: Confirmatory screen for SK-N-SH cells (AID 1347129); conditions: SK-N-SH neuroblastoma cell viability;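 also: potency is read from the fitted curve at half-maximal effect; cells exposed to compound for 48 h before viability read; nearly all actives have a fitted effect of over 60% in size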
Procedure, shortened: as §2

[28] = Primary qHTS for inhibitors of nuclear receptor binding SET domain protein 2 (NSD2) in an RCH-ACV wild type WT cells (2C) (AID 1645877); conditions: activity change, negative = cell killing: at 44.9 µM (top of the series) unless noted; also: potency is read from the fitted curve at half-maximal effect; nearly all actives have a fitted effect of over 70% in size
[29] = Quantitative High-Throughput drug screen in 47 multiple myeloma cell lines against the NCATS MIPE library collection: FR4_PLB cell viability assay (AID 1918924; also: potency is read from the fitted curve at half-maximal effect; nearly all actives have a fitted effect of over 35% in size)
Procedure, shortened: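 Viability readout: CellTiter-Glo luminescence following 5 min room-temperature incubation with reagent. Prior exposure: 48 h, 37C, humidified 5% CO2, 500 cells per well.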
Tags tell the direction and shape of the fitted curve.

SMILES: COc1cc([C@@H]2c3cc4c(cc3[C@@H](O[C@@H]3O[C@@H]5CO[C@@H](C)O[C@@H]5[C@H](O)[C@@H]3O)[C@H]3COC(=O)[C@H]23)OCO4)cc(OC)c1O
- Potency [1]: inconclusive: 26.4 µM [inhibitor, partial curve]
- Potency [2]: active: 1.18 µM
- Potency [3]: active: 1.04 µM
- Potency [4]: active: 0.59 µM
- Potency [5]: active: 0.485 µM
- Potency [6]: inconclusive: 29.6 µM [cytotoxic, single point]
- Potency [7]: active: 3.32 µM
- Potency [8]: inconclusive: 1.52 µM [cytotoxic, full curve]
- Potency [9]: inconclusive: 1.37 µM [cytotoxic, full curve]
- Potency [10]: inconclusive: 2.35 µM [cytotoxic, partial curve, poor fit]
- Potency [11]: active: 2.73 µM
- Potency [12]: inconclusive: 9.35 µM [cytotoxic, partial curve, poor fit]
- Potency [13]: inconclusive: 2.96 µM [cytotoxic, full curve]
- Potency [14]: inactive
- Potency [15]: inconclusive: 2.35 µM [cytotoxic, full curve]
- Potency [16]: active: 1.04 µM
- Potency [17]: inconclusive: 14.7 µM [cytotoxic, partial curve]
- Potency [18]: active: 1.47 µM
- Potency [19]: inconclusive: 4.65 µM [cytotoxic, full curve]
- Potency [20]: active: 1.47 µM
- Potency [21]: active: 0.737 µM
- Potency [22]: inactive
- Potency [23]: inconclusive: 36.9 µM [cytotoxic, single point]
- Potency [24]: inactive
- Potency [25]: inconclusive: 9.27 µM [cytotoxic, partial curve, poor fit]
- Potency [26]: active: 4.65 µM
- Potency [27]: inconclusive: 9.35 µM [cytotoxic, partial curve]
- Potency [28]: active: 0.235 µM
- Potency [29]: inconclusive: 0.0026 µM [rising, full curve, poor fit]
